Results as given in PubChem BioAssay AID1508623 (National Center for Advancing Translational Sciences (NCATS), 2021).
The whole screen tested about 48,000 compounds, of which about 450 (0.94%) were called active. Not shown: some 19% with an inconclusive outcome. Calls come from the whole dose curve; as a rule, active = well fitted inhibition curve with a large enough effect; inconclusive = small, poorly fitted or top-dose-only effect; inactive = no such curve, though single readings can be large or run the other way. The list shows a part of the results.

test: Primary qHTS for Identification of Small Molecule Inhibitors of Huntingtin Promoter Activity; conditions: HEK293 HTT promoter firefly luciferase reporter (activity 0% = vehicle and -100% = no light), 24 h; series mostly up to 57.5 µM; activity change, negative = inhibition: at the top concentration; note: nearly all actives have a fitted effect of over 50% in size
Method in brief: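 HEK293 Fluc reporter, 2,500 cells/well, 24 h pre-culture; cpds up to 57.5 uM final, 24 h 37 degrees C; Dual-Glo, 10 min RT; normalized vehicle = 0%, zero RLU = -100%.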

Activity change, negative = inhibition, inactive:
CCc1cccc(NC(=O)c2cc(S(=O)(=O)N3CCCCCC3)cn2C)c1 -22.4%
Cc1ccccc1CN1CCC(CNC(=O)c2cc3ccc4cccnc4c3[nH]2)CC1 -12.3%
CC(C)(C)C(=O)NC1CC(=O)N(c2ccc3c(c2)OCCO3)C1 (stereo not drawn) -1.5%
CCc1ccccc1N1CC(c2nc3ccccc3n2CCCCOc2ccccc2OC)CC1=O (stereo not drawn) -6.06%
Cc1noc(Cn2c(=O)c3cc4c(cc3n(CC(=O)Nc3ccc(C(C)C)cc3)c2=O)OCO4)n1 -24%
CC(C)NC(=O)Cc1csc2nc(-c3ccccc3)cn12 -18.8%
CNS(=O)(=O)c1ccc(NC(=O)c2nc3nc(C)cc(C(F)F)n3n2)cc1 -8.69%
CCN(c1ccccc1)S(=O)(=O)c1ccc(NC(=O)c2cc(=O)c3c(C)cc(C)cc3o2)cc1 0%
O=C1CCc2cc(S(=O)(=O)NC(C(=O)Nc3ccc(F)cc3)c3ccccc3)ccc2N1 (stereo not drawn) -12.5%
Cc1nc2nc(CNC(=O)c3cccc(F)c3)nn2c(C)c1CCC(=O)Nc1ccc(F)cc1 10.6%
CCOc1ccc(NS(=O)(=O)c2ccc3[nH]cc(C(=O)N4CCCC4)c(=O)c3c2)cc1 10.1%
O=c1ccc2ccccc2o1 -5.5%
O=c1n(Cc2ccccc2)nc2n1-c1ccccc1OC2 25.4%
CC(C)c1cnc2c(c1SCc1ccc([N+](=O)[O-])cc1)c(=O)n(C)c(=O)n2C -0.578%
COc1cc2c(cc1OC)C(COc1ccc(F)cc1)N(C(=O)C(C)C)CC2 (stereo not drawn) -24.1%
C=C1C(=O)OC2C=C(C)CCC=C(C)CCC12 (stereo not drawn) -1.64%
COc1ccc(S(=O)(=O)N(Cc2nc(-c3ccccc3)no2)C2CCCCC2)cc1 -26.9%
Cc1ccccc1C(=O)NCC(c1ccc(N(C)C)cc1)N1CCCC1 (stereo not drawn) 35.3%
Cc1cccc(-c2noc(-c3cccnc3NCc3ccccc3Cl)n2)c1 1.75%
O=S(=O)(NCC(c1ccco1)S(=O)(=O)c1ccccc1)c1cc(F)ccc1F (stereo not drawn) -12.6%
CNC(=O)C1CCC(Cn2c(=O)c3sccc3n(CC(=O)N3CCCCC3C)c2=O)CC1 (stereo not drawn) -7.23%
COc1cc(C2CC(=O)N(c3ccc(C)c(Cl)c3)C3=C2C(=O)OC3)cc(OC)c1OC (stereo not drawn) -8.02%
O=C(CCS(=O)(=O)c1ccc(Br)s1)Nc1c(F)cccc1F -9.97%
CCOC(=O)c1ccc(NC(=O)Nc2cccc(OCc3cc(=O)n4ccc(C)cc4n3)c2)cc1 -2.26%
COc1ccc(NC(=O)CCc2nc3cccnc3n2Cc2cccs2)c(OC)c1 -10.1%
CCCCOc1ccc(NC(=O)CSc2ccc(C(=O)O)cn2)cc1 -2.41%
Cc1cc(N2CCN(c3ccccc3F)CC2)n2cnnc2n1 -33%
O=C(NCc1ccc(F)cc1)c1ccc2c(c1)N(Cc1ccc(F)cc1Cl)C(=O)CS2 -14.3%
CCCSc1ncc(Cl)c(C(=O)Nc2ccc(OC)cc2OC)n1 -10.4%
COc1cccc(CNC(=O)CCn2ccc3cc(S(=O)(=O)N4CCCC4)ccc32)c1 -15.9%
Cc1ccc(CN2C(=O)SC(Nc3ccccc3)C2=O)cc1 (stereo not drawn) -13.3%
COc1ccc(NC(=O)Nc2nnc(SCC(=O)Nc3cccc(C)c3C)s2)cc1 11.1%
CCn1cnc2c(=O)oc3ccc(S(=O)(=O)N4CCN(c5cc(C)ccc5C)CC4)cc3c21 -17.5%
Cc1ccc(C2C=C(c3ccc(Cl)cc3)Nc3nc(NC(=O)CCC(=O)O)nn32)cc1 (stereo not drawn) -1.95%
CCCOc1ccc(C(=O)Nc2cc3nn(-c4ccc(CC)cc4)nc3cc2C)cc1 -3.54%
COc1ccccc1OCCCn1c(-c2ccc(Cl)cc2)nc2ccccc2c1=O -8.5%
CCC(C)Cn1c(COc2ccc(OC)cc2)nc2ccccc21 (stereo not drawn) -15.7%
CCOC(=O)Cc1c(C)nc2c(-c3ccc(OC)c(OC)c3)c(C)nn2c1C -13.7%
Cc1cccc(C(=O)Nc2nnc(S(=O)(=O)N3CCC(C)CC3)s2)c1 -11.3%
CCOC(=O)CC(NC(=O)c1cc2cc(OC)ccc2oc1=O)c1ccc(OC)cc1 (stereo not drawn) -1.46%
O=C(CCC(=O)N1CC2CCCN2c2ccccc21)NCc1ccccc1F (stereo not drawn) -0.641%
Cc1cccc(OCC(=O)OCc2cc(=O)n3nc(C4CC4)sc3n2)c1 -9.98%
O=C(NCc1ccccc1)c1cccc(Nc2nc3ccccc3n3nnnc23)c1 19.1%
O=C(C1CCN(S(=O)(=O)c2cccc3nonc23)CC1)N1CCN(c2ccc(F)cc2)CC1 -26.8%
CCOc1ccc(CNC(=O)CCS(=O)(=O)c2cc3c4c(c2)CCN4C(=O)CC3)cc1 -27.6%
CCOC(=O)c1c(C)oc2ncnc(Nc3ccc(CC)cc3)c12 -16.5%
CC1CCN(C(=O)CN2CCSc3ccc(S(=O)(=O)N(C)C)cc32)CC1 -20%
COc1ccc(/C=C/c2nc(-c3ccccc3O)n(-c3ccccc3)n2)cc1OC -29.4%
CCC(=O)N1CCc2cc(S(=O)(=O)NCCC(=O)NC(C)c3ccccc3)ccc21 (stereo not drawn) -15.1%
CC(=O)c1ccc(NC(=O)C(Cc2ccccc2)NS(=O)(=O)c2ccc3c(c2)CCC(=O)N3)cc1 (stereo not drawn) 4.8%
CCn1c(CN2CCC(C)CC2)nc2cc(NC(=O)c3ccccc3[N+](=O)[O-])ccc21 -15.2%
Cc1ccc(C)c(Cn2c(=O)c3c(nc4n3CCN4c3ccc(F)cc3)n(C)c2=O)c1 -7.29%
CCOC(=O)c1c(C)[nH]c(CCC(=O)NCCCN2CCN(c3cccc(Cl)c3)CC2)c1C -29.4%
CC(=O)NCCNC(=O)CCCc1nnc2n(CCC(C)C)c(=O)c3sccc3n12 -9.15%
CCc1ccc(OC(=O)CSc2nnc(-c3ccc4c(c3)OCO4)o2)cc1 -7.05%
Cc1ccc(NC(=O)C(=O)NCC(c2cccnc2)N2CCOCC2)cc1C (stereo not drawn) -22.2%
CCOCCCNC(=O)C(c1ccc(OC)cc1)N(Cc1cccs1)C(=O)c1ccc(NC(C)=O)cc1 (stereo not drawn) -1.09%
Cc1ccc(C(=O)c2oc3ccccc3c2NC(=O)c2cc(=O)c3ccccc3o2)cc1 -11%
COc1cccc(-c2cn3c(n2)sc2cc(C(=O)NCc4cccs4)ccc23)c1 30%
COc1ccc2oc(=O)cc(CN3CCN(C(=O)c4ccccc4F)CC3)c2c1 -10.6%
CC(=O)Nc1ccc(NC(=O)CC2Sc3ccccc3NC2=O)cc1 (stereo not drawn) 1.21%
O=C(CCN1CCC(c2ccccc2)C1)c1ccc2c(c1)OCCO2 (stereo not drawn) 25.1%
CCOc1ccc(CNC(=O)C2CCN(S(=O)(=O)c3c(C)noc3/C=C/c3ccc(C)cc3)CC2)cc1OC -15.2%
